# From patent US20250043015A1 (SHENGHE CHINA BIOPHARMACEUTICAL, published 2025)
# Where a chain is given by its changes, count along the chain named.
# T1: Recombinant human TNFR2-His Tag protein (Sino, Cat: 10417-H08H) (human, UniProt P20333 23-257)
# T1 construct: Bought protein; also called human TNFR2-His protein; not shown: His tag
# T1 sequence (looked up): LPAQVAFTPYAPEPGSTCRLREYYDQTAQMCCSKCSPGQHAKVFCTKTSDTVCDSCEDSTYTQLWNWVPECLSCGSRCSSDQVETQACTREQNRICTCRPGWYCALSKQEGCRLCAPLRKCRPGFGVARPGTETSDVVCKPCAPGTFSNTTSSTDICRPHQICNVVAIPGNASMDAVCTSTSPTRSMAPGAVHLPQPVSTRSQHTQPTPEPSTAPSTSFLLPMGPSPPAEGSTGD
# B1: Antibody 18 (Fc fusion)
# heavy: EVQLVESGGGLVQPGGSLRLSCAASGSRLDYYAVAWFRQAPGKEREEVSCITYSGGSTNYADSVKGRFTISRDNSKNTLYLQMNSLRAEDTAVYYCTTEPYGSSCPLSGYDTWGQGTLVTVSS[human IgG1 Fc omitted here]
# notes: Humanized antibody
# B2: Antibody 21 (Fc fusion)
# heavy: B1 heavy with F37V, R45L, D62E
# notes: Humanized antibody
# B3: Antibody 20 (Fc fusion)
# heavy: B1 heavy with F37V, R45L
# notes: Humanized antibody
# B4: Antibody 19 (Fc fusion)
# heavy: B1 heavy with D62E
# notes: Humanized antibody
# B5: Antibody 17 (Fc fusion)
# heavy: B1 heavy with S75A, T78M, L79V, S85K, R87K, A88P, V93R, L118Q
# notes: Humanized antibody
# Molecular target: T1, Recombinant human TNFR2-His Tag protein …
# Assay: ELISA, Human-TNFR2-His coated at 0.5 µg/mL, anti-human IgG-HRP
row,EC50 [ng/mL],Binder
1,11.6,B1
2,17.4,B2
3,6.13,B3
4,3.06,B4

# Molecular target: T1, Recombinant human TNFR2-His Tag protein …
# Assay: BLI (Octet Red96e), antibody on AHC sensor, 100 nM human TNFR2-His; column head 'single concentration'; unit inferred
row,Kd [nM],Binder
1,1.09,B1
2,1.1,B5
3,5.5,B2
4,6.49,B3
5,1.03,B4
